Measurements taken from PubChem BioAssay AID588579 (National Center for Advancing Translational Sciences (NCATS), 2011).
Out of some 400,000 compounds screened, about 2,200 (0.55%) were called active. The shares of active, inactive and inconclusive entries below differ from those in the screen. Calls come from the whole dose curve; as a rule, active = well fitted inhibition curve with a large enough effect; inconclusive = small, poorly fitted or top-dose-only effect, or another doubt; inactive = no such curve, though single readings can be large or run the other way. Potencies beside an inconclusive call are fits to weak or partial responses and may not hold up.
% is set by controls: 0 for no effect and ±100 for the full control effect; potency is the fitted concentration of half-maximal effect; tags give direction and shape of the fitted curve.

What follows are molecules tested against DNA polymerase kappa (Homo sapiens) (UniProt Q9UBT6) (assay: qHTS for Inhibitors of Polymerase Kappa). Settings: purified Pol kappa, fluorescent DNA synthesis assay, 10 min; series mostly up to 107 µM.
UniProt Q9UBT6, sequence (Q9UBT6 whole entry, looked up): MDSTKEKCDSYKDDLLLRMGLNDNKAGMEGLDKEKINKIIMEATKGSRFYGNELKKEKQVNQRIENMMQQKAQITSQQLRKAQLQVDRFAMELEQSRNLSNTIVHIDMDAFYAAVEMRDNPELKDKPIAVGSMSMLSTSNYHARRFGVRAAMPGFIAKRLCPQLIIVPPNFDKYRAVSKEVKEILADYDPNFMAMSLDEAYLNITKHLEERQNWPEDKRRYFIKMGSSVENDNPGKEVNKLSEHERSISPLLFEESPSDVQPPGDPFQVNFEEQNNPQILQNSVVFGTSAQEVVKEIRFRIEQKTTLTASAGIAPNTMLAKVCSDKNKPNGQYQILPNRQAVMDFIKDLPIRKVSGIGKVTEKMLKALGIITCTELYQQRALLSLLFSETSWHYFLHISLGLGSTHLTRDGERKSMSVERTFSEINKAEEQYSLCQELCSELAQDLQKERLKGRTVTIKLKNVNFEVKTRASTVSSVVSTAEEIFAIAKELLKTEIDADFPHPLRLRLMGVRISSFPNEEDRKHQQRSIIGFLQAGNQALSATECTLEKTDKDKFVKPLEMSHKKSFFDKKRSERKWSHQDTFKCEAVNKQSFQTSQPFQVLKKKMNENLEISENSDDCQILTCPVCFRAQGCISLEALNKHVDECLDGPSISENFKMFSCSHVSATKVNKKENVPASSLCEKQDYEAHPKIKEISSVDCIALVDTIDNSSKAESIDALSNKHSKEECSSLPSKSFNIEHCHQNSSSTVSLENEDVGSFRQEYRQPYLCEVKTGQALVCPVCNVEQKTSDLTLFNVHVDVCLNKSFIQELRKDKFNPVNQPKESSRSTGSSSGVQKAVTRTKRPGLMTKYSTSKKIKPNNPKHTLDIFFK
Procedure, shortened: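 Readout: fluorescence, taken kinetically at 0 and 10 min. Conditions: 10 nM Pol kappa, 15 min RT compound preincubation, 50 nM substrate final. Controls: enzyme-free buffer wells.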
In the case of `COc1ccc(NC(=O)CSc2nc(-c3ccccc3)nc3cc(=O)[nH]n23)cc1`, the Potency was inconclusive: 100 µM [inhibitor, single point]. For `N#C/C(=C/c1ccc(CNS(=O)(=O)c2ccccc2)o1)C(=O)NCc1ccccc1`, the Potency was “inactive”. `Cc1cccc(NC(=O)NNC(=O)c2cc3ccccc3cc2O)c1C` was tested, and the Potency was inconclusive: 89.1 µM [inhibitor, single point]. With `Cc1c(C(=O)Nc2ccc(Br)cc2F)sc2ncnc(N(C)C3CCCCC3)c12` the Potency was “inactive”. With `CCOCCn1ccc2c(OCC(=O)Nc3ccc(OC(F)(F)F)cc3)cccc2c1=O` the Potency was “inactive”. For `CC[N+](CC)(CC)c1ccc(/C=C/c2ccc3ccccc3n2)cc1`, the Potency was active: 44.7 µM. For `O=c1cc(-c2ccc(O)cc2)oc2cc(O)c(C3OC(CO)C(O)C(O)C3O)c(O)c12` (centres undefined), the Potency was active: 39.8 µM. For `CCOC(=O)c1ccc(CNc2ncnc3nc[nH]c23)cc1`, the Potency was inconclusive: 100 µM [inhibitor, partial curve, poor fit]. For `C=CCc1ccccc1OCC(O)CN1CCN(c2ccccc2)CC1` (centres undefined), the Potency was inconclusive: 89.1 µM [inhibitor, partial curve, poor fit]. `COc1cccc(N2CC34C=CC(O3)C(C(=O)O)C4C2=O)c1` (centres undefined) was tested, and the Potency was inconclusive: 89.1 µM [inhibitor, single point]. With `CC1=NN(c2ccccc2)C(=O)C1N=Nc1ccccc1` (centres undefined) the Potency was “inactive”. In the case of `COC(=O)CCCC1=CC2=CC(=O)C(C)(OC(=O)CCc3ccccc3)C(=O)C2=CO1` (centres undefined), the Potency was inconclusive: 79.4 µM [inhibitor, partial curve]. For `O=C(Nc1cccc(C2=NCCN2)c1)Nc1cccc(C2=NCCN2)c1`, the Potency was active: 7.52 µM. In the case of `COc1ccc(C(=O)N/N=C/c2ccc(N3CCOCC3)s2)cc1OC`, the Potency was inconclusive: 79.4 µM [inhibitor, partial curve, poor fit]. In the case of `Cc1c([N+](=O)[O-])cnc2ccccc12`, the Potency was “inactive”. With `Cc1ccc2c(c1)c1nnc(SCC(=O)Nc3ccc(N(C)C)cc3)nc1n2CC(=O)O` the Potency was inconclusive: 89.1 µM [inhibitor, partial curve, poor fit]. For `C[C@]12CCC(=O)C=C1CC[C@@H]1[C@@H]2[C@@H](O)C[C@@]2(C)[C@H]1CC[C@]2(O)C(=O)COP(=O)(O)O`, the activity, negative = inhibition was inactive: -6.34% [at 19.4 µM]. In the case of `C=CCn1c(=O)c(CCC(=O)Nc2ccc(N3CCOCC3)cc2)nc2cc(C(F)(F)F)ccc21`, the Potency was inconclusive: 100 µM [inhibitor, single point]. `c1nc(NC2CCCCCC2)c2[nH]cnc2n1` was tested, and the Potency was inconclusive: 89.1 µM [inhibitor, single point]. In the case of `Cc1cnc(C(=O)OCc2nc3ccsc3c(=O)[nH]2)cn1`, the Potency was active: 79.4 µM. With `CCOC(=O)Cc1nnc(NC(=O)c2ccccc2OCC)s1` the Potency was “inactive”. For `O=C(CCCn1c(=O)c2sccc2n(Cc2ccc(F)cc2Cl)c1=O)NCc1ccc2c(c1)OCO2`, the Potency was “inactive”. With `Oc1c(Br)cc(Br)cc1CNc1cccc2cccnc12` the Potency was inconclusive: 89.1 µM [inhibitor, single point]. For `CNCCCOc1cc2nc(N3CCCN(C)CC3)nc(NC3CCN(C)CC3)c2cc1OC`, the Potency was inconclusive: 89.1 µM [inhibitor, partial curve, poor fit]. In the case of `C=Cc1ccc(COc2ccc3oc(-c4ccccc4)c(C(=O)OCC)c3c2)cc1`, the Potency was “inactive”. With `CCC(=O)c1ccc(CCCCCC(=O)O)s1` the Potency was inconclusive: 89.1 µM [inhibitor, partial curve, poor fit]. With `CSc1ccccc1NC(=O)c1cc2ncc(Br)cn2n1` the Potency was inconclusive: 89.1 µM [inhibitor, partial curve, poor fit]. For `O=c1c(O)cc(C2Oc3cc(O)cc(O)c3CC2O)cc2c(C3Oc4cc(O)cc(O)c4CC3O)cc(O)c(O)c12` (centres undefined), the Potency was active: 0.708 µM. For `CCN(C(=O)c1cc2c(=O)n3cccc(C)c3nc2s1)c1ccc(C)c(C)c1`, the Potency was inconclusive: 79.4 µM [inhibitor, partial curve, poor fit]. With `O=C(COc1ccccc1/C=C1\SC(=O)NC1=O)Nc1ccccc1` the Potency was “inactive”. For `C[C@@H]1CCN=C(N)S1`, the Potency was inconclusive: 0.0355 µM [inhibitor, full curve, poor fit]. For `COc1ccc(-c2nn(C)c3sc(C(=O)Nc4cc(OC)c(OC)c(OC)c4)cc23)cc1OC`, the Potency was active: 50.1 µM. In the case of `C(=C\c1ccnc2ccccc12)/c1ccc(N(Cc2ccccc2)Cc2ccccc2)cc1`, the Potency was “inactive”. In the case of `O=C(/C=C/c1ccc(Br)o1)Nc1nccs1`, the Potency was inconclusive: 56.2 µM [inhibitor, partial curve, poor fit]. For `COc1ccc(-c2ccc(-c3noc(C4CCCCC4)n3)c(OC)n2)cc1`, the Potency was inconclusive: 100 µM [inhibitor, single point]. `CCCCNC(=O)COC(=O)c1c2c(nc3ccccc13)/C(=C\c1cccs1)CC2` was tested, and the Potency was inconclusive: 89.1 µM [inhibitor, single point]. `Nc1ccc2c(O)cc(S(=O)(=O)O)cc2c1` was tested, and the Potency was active: 14.1 µM. With `O=C(O)C1Nc2ccccc2C2C=CCC12` (centres undefined) the Potency was active: 6.31 µM. With `NS(=O)(=O)c1ccc(NS(=O)(=O)c2ccc(NC(=O)c3ccc(-c4ccccc4)cc3)cc2)cc1` the Potency was inconclusive: 100 µM [inhibitor, single point]. For `CC(Oc1ccccc1)C(=O)Nc1ccccc1C(=O)OCc1cc(=O)n2nc(C3CC3)sc2n1` (centres undefined), the Potency was “inactive”. `Cc1ccc2c(c1)c1c(c(=O)n(Cc3ccccc3)c(=O)n1Cc1cccc(F)c1)n2C` was tested, and the Potency was “inactive”. In the case of `O=C(OCC(=O)N1N=C(c2ccc(Cl)cc2)CC1c1ccco1)c1cccnc1` (centres undefined), the Potency was active: 44.7 µM. `c1ccc(-c2nn3c(Cn4nnc5ccccc54)nnc3s2)nc1` was tested, and the Potency was inconclusive: 89.1 µM [inhibitor, single point]. For `NC(=O)N/N=C/c1cccc(OCc2ccc(F)cc2)c1`, the Potency was “inactive”. With `COc1ccc(NC2CCCN(C(=O)c3cccc(C)n3)C2)cc1OC` (centres undefined) the Potency was inconclusive: 89.1 µM [inhibitor, single point]. In the case of `CCN(C(=O)c1cc2c(s1)-c1c(C)cccc1OC2)c1cc(C)ccc1C`, the Potency was “inactive”. `COc1ccccc1N1CSC2=C(C#N)C(c3ccc(SC)cc3)CC(=O)N2C1` (centres undefined) was tested, and the Potency was inconclusive: 7.94 µM [inhibitor, full curve, poor fit]. With `CC(=O)Nc1nonc1-c1nnc(SCC(=O)Nc2ccccc2Cl)n1C` the Potency was “inactive”. `Clc1cccc(-c2nnc(CN3CCN(c4ccccn4)CC3)o2)c1` was tested, and the Potency was inconclusive: 3.16 µM [inhibitor, full curve, poor fit]. With `COc1cc2c(cc1OC)C1=NC(=O)CN1C(SCc1ccc(C)cc1)=N2` the Potency was inconclusive: 35.5 µM [inhibitor, single point]. For `O=[N+]([O-])c1cc([N+](=O)[O-])c2oc(-c3ccccc3)c(Br)c2c1O`, the Potency was inconclusive: 89.1 µM [inhibitor, partial curve, poor fit]. In the case of `CC(C)c1ccc(NC(=O)Cn2ncn3c(cc4ccccc43)c2=O)cc1`, the Potency was inconclusive: 70.8 µM [inhibitor, single point]. `O=C1OC(c2ccc(Cl)cc2)=N/C1=C\C=C\c1ccco1` was tested, and the Potency was inconclusive: 89.1 µM [inhibitor, single point]. For `CC(=O)NCCn1c(SCC(=O)NCCC(C)C)nc2ccccc2c1=O`, the Potency was active: 22.4 µM. For `CCCC(=O)NCCc1nc2ccccc2n1Cc1c(F)cccc1Cl`, the Potency was “inactive”. `CCOc1ccc(NC(=O)CN(C)S(=O)(=O)c2ccc3c(c2)c(=O)n(C)c(=O)n3C)cc1` was tested, and the Potency was “inactive”. With `CCOC1=C/C(=C/c2c(N)n3nc(CC(=O)N4CCCCC4)sc3nc2=O)C=CC1=O` the Potency was inconclusive: 100 µM [inhibitor, single point]. For `CCc1ccc(NC(=O)c2cnn(-c3c(C)cccc3C)c2C2CCNCC2)cc1`, the Potency was “inactive”. `Cc1cc(NC(=O)CSc2sc3c(O)cc(=O)[nH]c3c2C#N)ccc1Br` was tested, and the Potency was inconclusive: 79.4 µM [inhibitor, single point]. With `N#Cc1c(C(F)(F)F)cc(-c2cccs2)nc1SCC(=O)Nc1ccc(Cl)cc1` the Potency was “inactive”. With `O=C(COC(=O)c1ccccc1NCCO)Nc1cccc(S(=O)(=O)NC2=NCCCCC2)c1` the Potency was inconclusive: 89.1 µM [inhibitor, single point]. For `CC(C)(C)OC(=O)N1CCC(c2c(C(=O)NCCN3CCOCC3)cnn2-c2ccccc2)CC1`, the Potency was “inactive”. With `O=[N+]([O-])c1cc(/C=N/n2c(-c3ccncc3)n[nH]c2=S)ccc1Cl` the Potency was inconclusive: 56.2 µM [inhibitor, partial curve, poor fit]. In the case of `O=C(c1cc2c(s1)CCC2)N1CCN(c2ccccc2)CC1`, the Potency was inconclusive: 89.1 µM [inhibitor, single point]. `O=c1oc(-c2ccc(O)c(O)c2)cc2cc(O)cc(O)c12` was tested, and the Potency was inconclusive: 39.8 µM [inhibitor, single point]. With `CCC(=O)OCC(=O)[C@@]1(OC(=O)CC)[C@@H](C)C[C@H]2[C@@H]3CCC4=CC(=O)C=C[C@]4(C)[C@@]3(F)[C@@H](O)C[C@@]21C` the Potency was inconclusive: 25.1 µM [inhibitor, partial curve, poor fit]. With `COc1ccc(NS(=O)(=O)c2ccc(O)c(NC(=O)c3cc4c(C)nn(-c5ccc(F)cc5)c4s3)c2)cc1` the Potency was inconclusive: 39.8 µM [inhibitor, full curve]. `O=C(Nc1nc(-c2ccccc2)cs1)c1ccc(=O)[nH]c1` was tested, and the Potency was “inactive”. `Cc1cc(N)n(-c2ccc(Oc3ccccc3)c(S(=O)(=O)O)c2)n1` was tested, and the Potency was inconclusive: 89.1 µM [inhibitor, single point].
